Measured values as given in PubChem BioAssay AID463173 (ICCB-Longwood Screening Facility, Harvard Medical School, 2010).
The whole screen tested about 52,000 compounds, of which about 4,300 (8.3%) were called active. Rule as the data show it: active = survival mostly below about 52% (no sharp cut-off); inactive = mostly above about 56%. Some of the results follow.

The compounds below were run on DeltatarO mutant (assay: S. aureus survival, RN4220 and DeltatarO strains – OD600, teichoic acid synthesis inhibitors, primary screen (AID 463173)). Details: S. aureus RN4220 wild type/DeltatarO growth, OD600, 18 h, stronger effect = lower value, screened at 18.75 µg/mL (by protocol).
With Cc1ccccc1NC(=O)CCc1c(C)nc2c(c1C)c(=O)n(C)c(=O)n2C the survival was inactive: 100%. With COC(=O)/C=C1/C(=O)N(C(C)=O)c2ccccc21 the survival was inactive: 90%. CCCN(C(=O)Cn1cnc2sc(C)c(S(=O)(=O)N3CCN(c4ncccn4)CC3)c2c1=O)c1cccc(C)c1 was tested, and the survival was inactive: 84%. For Cc1cc(C)cc(N(C)S(=O)(=O)c2nnc(NC(=O)COc3ccc(Cl)cc3)s2)c1, the survival was inactive: 80%. With CC(=O)c1cccc(NC(=O)CN2C(=O)CN(C)C(=O)c3ccccc32)c1 the survival was inactive: 88%. With Cc1cccc(Cn2c(-c3cccs3)nc3ccccc32)c1 the survival was active: 2%. With CCOc1ccc(Cn2c(CNS(=O)(=O)c3cccs3)nc3cccnc32)cc1 the survival was inactive: 99%. For Cn1c(=O)c2c(nc(SCC(=O)Nc3ccc(F)cc3)n2Cc2ccc(Cl)cc2)n(C)c1=O, the survival was active: 31%. For CN1CCN(Cc2cc3sccc3n2Cc2ccc(F)cc2)CC1, the survival was inactive: 102%. For Cc1ccc(N2CCN(c3cc(C)nc4c(-c5ccc(Cl)cc5)c(C)nn34)CC2C)cc1 (stereo not given), the survival was inactive: 55%. For NC(=O)Cn1c(=O)n(-c2ccc(F)c(Cl)c2)c(=O)c2sc3ccccc3c21, the survival was inactive: 117%. In the case of CCc1nc(SCc2cc(=O)c3cc(F)ccc3[nH]2)n[nH]1, the survival is reported as inactive: 99%. O=C(Nc1nnc(C2CCCCC2)s1)c1ccc2c(c1)OCO2 was tested, and the survival was inactive: 79%. With CCN(CC)S(=O)(=O)c1ccc(NC(=O)[C@H](CCSC)N2Cc3ccccc3C2=O)cc1 the survival was inactive: 65%. Cc1ccc(S(=O)(=O)c2nnn3c2nc(N2CCCCC2)c2sccc23)cc1 was tested, and the survival was inactive: 104%. With CCn1ccc2cc(S(=O)(=O)N3CCCN(C(=O)Nc4ccc(C)cc4)CC3)ccc21 the survival was inactive: 73%. With CCC(=O)Nc1ccc(C(=O)CSc2ncc(C#N)c(N)n2)cc1OC the survival was inactive: 96%. With Cc1cn2c(=O)c(S(=O)(=O)NC(C)c3ccccc3)c(C)nc2s1 (stereo not given) the survival was inactive: 68%. In the case of Cc1ccc(NC(=O)Cn2ncc3c4ccccc4n(Cc4ccccc4)c3c2=O)cc1Cl, the survival is reported as inactive: 89%. With Cc1ccc(C)c2sc(N3CCN(C(=O)c4ccco4)CC3)nc12 the survival was inactive: 134%. For CCOc1ccc(NC(=O)c2ccc3c(c2)c(C)c(C)n3Cc2ccc(F)cc2)cc1, the survival was inactive: 92%. With COc1ccc(S(=O)(=O)NCCc2sc(-c3ccccc3)nc2C)cc1F the survival was inactive: 84%. With Cc1ccc(Cl)cc1N1CCN(S(=O)(=O)c2ccc(-c3cnc(C4CC4)o3)cc2)CC1 the survival was inactive: 69%. CC(=O)c1ccc(NC(=O)c2cc(C3CC3)nc3c2c(C)nn3-c2ccc(C)cc2)cc1 was tested, and the survival was active: 46%. For Cc1nnc(Nc2ccc(C(=O)O)cc2)[nH]c1=O, the survival was inactive: 108%. In the case of COC(=O)c1sccc1S(=O)(=O)N1CCN(c2ccc(C(C)=O)cc2)CC1, the survival is reported as inactive: 115%. In the case of COc1ccc(Cl)cc1NC(=O)Cn1nnc(C(=O)NCc2ccc3c(c2)OCO3)c1N, the survival is reported as inactive: 60%. In the case of Cc1ccc(Cn2c(CN3CCC(C(=O)NCC(C)c4ccccc4)CC3)cc3ccccc32)cc1 (stereo not given), the survival is reported as inactive: 113%. With CCOC(=O)c1c(NC(=O)CSc2cn(CCNC(=O)c3c(F)cccc3F)c3ccccc23)sc2c1CCCC2 the survival was inactive: 92%. For CCOCCc1nn2c(=O)cc(COC(=O)c3cccc(C)c3)nc2s1, the survival was active: -5%. Cc1ccc(-c2cc(C(=O)Nc3c(C(=O)c4ccc(C)c(F)c4)oc4ccccc34)no2)cc1 was tested, and the survival was inactive: 90%. In the case of Cc1ccc(C)c(N2CCN(C(=O)C3CCCN(S(=O)(=O)c4cccc5nonc45)C3)CC2)c1 (stereo not given), the survival is reported as inactive: 76%. With Cc1cc(C)c(NC(=O)CN(C)S(=O)(=O)c2ccc3c(c2)c(=O)n(C)c(=O)n3C)c(C)c1 the survival was inactive: 81%. With CCC1=C(c2ccc(C)cc2)S(=O)(=O)N=C1N1CCC(C(=O)NCc2ccc(C)cc2)CC1 the survival was inactive: 66%. Cc1ccc(C(=O)/C=C/c2cn(CC(O)CN3CCCCCC3)c3ccccc23)cc1 (stereo not given) was tested, and the survival was active: 12%. For Cc1ccc(NC(=O)CSc2nccn2Cc2ccc3c(c2)OCO3)c(C)c1, the survival was inactive: 86%. In the case of CCOC(=O)c1ccc2nc(C)c(CC)c(Cl)c2c1, the survival is reported as inactive: 73%. CCC(C)NC(=O)CCC(=O)NNc1nc2ccccc2c2nc(C)nn12 (stereo not given) was tested, and the survival was inactive: 128%. With COc1cc(NS(=O)(=O)c2ccc(NC(=O)c3ccc(OC)c(Br)c3)cc2)nc(OC)n1 the survival was inactive: 90%. For CCc1ccc(S(=O)(=O)n2ccnc2)cc1, the survival was inactive: 95%. With COCCn1c(=NC(=O)c2ccc3c(c2)OCCO3)sc2cc(NC(C)=O)ccc21 the survival was inactive: 94%. For Cc1ccc(-c2nn3c(=O)cc(CN4CCN(C(=O)c5ccc(C(C)(C)C)cc5)CC4)nc3s2)cc1, the survival was inactive: 67%. O=C(Nc1ccc(F)cc1F)N1CCc2c(sc3c2CCCC3)C1c1ccc(F)cc1 (stereo not given) was tested, and the survival was inactive: 93%. Cc1ccc(C(C(=O)NC2CCCC2)N(C(=O)Cn2nnc3ccccc32)c2cnc3ccccc3c2)o1 (stereo not given) was tested, and the survival was inactive: 104%. COc1ccc(C(=O)N2CCN(C(=O)COc3ccc(C)cc3)CC2)cc1OC was tested, and the survival was inactive: 78%. In the case of CC(C)c1ccc(NC(=O)CN2C(=O)CCc3cc(S(=O)(=O)N4CCOCC4)ccc32)cc1, the survival is reported as inactive: 87%. CC(C)c1ccc(NC(=O)c2ccc(F)c(S(=O)(=O)N3CCN(c4ccccc4F)CC3)c2)cc1 was tested, and the survival was inactive: 115%. For O=C(Cn1cc(S(=O)(=O)N2CCN(c3ccccc3F)CC2)c2ccccc2c1=O)Nc1ccc(F)cc1Cl, the survival was inactive: 120%. With COc1cc2c(C(=O)N3CCN(c4cc(Cl)ccc4C)CC3)cn(CC(C)C)c(=O)c2cc1OC the survival was active: 40%. In the case of CN(C(=O)CSc1nnc2c3ccccc3n(C)c2n1)C1CCCCC1, the survival is reported as inactive: 52%. For CCCOc1ccc(-c2cccc(NS(=O)(=O)c3ccc(CC)cc3)c2)nn1, the survival was inactive: 94%. In the case of COc1ccc(NC(=O)CN2CCN(c3ccccc3F)CC2)c(OC)c1, the survival is reported as inactive: 73%. For Cc1cc(SCC(=O)Nc2nsc(-c3ccc(C(C)(C)C)cc3)n2)nc2ccccc12, the survival was active: 13%. COc1cccc(N2CCN(C(=O)c3c4c(nc5ccccc35)C(=O)N(C3CCCCC3)C4)CC2)c1 was tested, and the survival was inactive: 98%. With COc1cccc(NC(=O)C2CCCN2S(=O)(=O)c2ccc3nc(-c4ccccc4)[nH]c3c2)c1 (stereo not given) the survival was active: 44%.
